Assay results reported in PubChem BioAssay AID588342 (National Center for Advancing Translational Sciences (NCATS), 2011).
About 25,000 (6.9%) of roughly 360,000 compounds were called active. This list was built around the results that the source calls inconclusive (neither active nor inactive); the mix of calls is not that of the screen. Calls come from the whole dose curve; as a rule, active = well fitted inhibition curve with a large enough effect; inconclusive = small, poorly fitted or top-dose-only effect; inactive = flat fitted curve, though single readings scatter. A potency beside an inconclusive call is a rough fit, not a confirmed value.

molecular target: Luciferin 4-monooxygenase (Photinus pyralis) (UniProt P08659); assay: qHTS profiling assay for firefly luciferase inhibitor/activator using purifed enzyme and Km concentrations of substrates (counterscreen for miR-21 project); details: purified FLuc, luminescence inhibition; series mostly up to 57.5 µM; note: nearly all actives have a fitted effect of over 55% in size
In short: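 Biochemical qHTS of compounds, final roughly 60 µM downward over six points, against 10 nM purified firefly luciferase using Km concentrations of substrates (10 uM D-luciferin, 10 uM ATP) in Tris acetate pH 7.5 buffer; luminescence output.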
Potency is the fitted concentration of half-maximal effect; tags give direction and shape of the fitted curve.

Sequence of UniProt P08659 (P08659 whole entry, looked up): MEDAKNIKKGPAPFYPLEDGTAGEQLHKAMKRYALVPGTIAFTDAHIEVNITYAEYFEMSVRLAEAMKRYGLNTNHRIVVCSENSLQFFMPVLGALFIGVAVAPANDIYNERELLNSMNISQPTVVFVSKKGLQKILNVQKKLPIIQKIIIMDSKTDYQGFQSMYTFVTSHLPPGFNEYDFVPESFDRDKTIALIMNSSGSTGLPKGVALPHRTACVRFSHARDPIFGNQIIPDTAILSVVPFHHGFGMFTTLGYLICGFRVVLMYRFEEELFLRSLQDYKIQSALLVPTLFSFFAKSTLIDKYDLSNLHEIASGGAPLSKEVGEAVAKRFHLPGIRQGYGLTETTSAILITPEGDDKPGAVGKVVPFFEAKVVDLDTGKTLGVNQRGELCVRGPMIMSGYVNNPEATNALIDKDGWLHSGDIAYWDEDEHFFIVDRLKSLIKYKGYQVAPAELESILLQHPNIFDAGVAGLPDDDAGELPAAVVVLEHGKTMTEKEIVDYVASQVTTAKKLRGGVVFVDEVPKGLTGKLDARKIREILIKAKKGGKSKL

Structure (SMILES) | Potency
Cn1c(-c2ccc(F)cc2)cnc1SCC(=O)N1CCCCC1 | active: 2.69 µM
Clc1ccc(-c2noc(CN3CCOCC3)n2)cc1 | inconclusive: 30.1 µM [inhibitor, partial curve]
Clc1ccccc1Cn1nnc(-c2cccs2)n1 | active: 15.1 µM
Cc1ccc2c(CC(=O)NC3=NCCS3)coc2c1 | inconclusive: 21.3 µM [inhibitor, single point]
Cc1ccc(-n2c(CCC(=O)O)ccc2-c2cccs2)cc1 | inconclusive: 23.9 µM [inhibitor, partial curve, poor fit]
COc1ccc(C(=O)Nc2ccc3c(c2)OCO3)cc1OC | active: 10.7 µM
CCOc1ccc(-c2nnn(CC(=O)NCc3ccc4c(c3)OCO4)n2)cc1 | inactive
Cc1ccc(CNC(=O)C2CC(c3ccccc3[N+](=O)[O-])=NO2)cc1 (stereo not given) | inconclusive: 21.3 µM [inhibitor, partial curve, poor fit]
COc1cc(/C=C2\C(=O)ON=C2c2ccccc2)cc(OC)c1OC | inconclusive: 37.9 µM [inhibitor, partial curve, poor fit]
CC1=C/C(=C\c2ccc(Br)o2)C(=O)O1 | inactive
CN(N=Nc1ccc([N+](=O)[O-])cc1)c1ccccc1 | active: 5.36 µM
O=C1C2C(C(=O)N1/N=C/c1cccc([N+](=O)[O-])c1)C1C=CC2C12CC2 (stereo not given) | active: 7.57 µM
COc1ccc(CCNC(=O)c2ccco2)cc1 | inconclusive: 19 µM [inhibitor, single point]
COc1ccc(CN(C)CC(=O)Nc2sc3c(c2C#N)CCC3)cc1OC | inactive
O=C(CSc1n[nH]c(-c2ccccc2)n1)NCc1cccc(C(=O)O)c1 | inconclusive: 23.9 µM [inhibitor, partial curve, poor fit]
CCOc1ccc(C(=S)NC2CCCCC2)cc1OC | inconclusive: 23.9 µM [inhibitor, single point]
O=c1c2ccccc2nc2ccc(N3CCOCC3)nn12 | active: 16.9 µM
Cc1cc(=O)oc2c3c(cc(OCC(=O)N[C@@H](Cc4ccccc4)C(=O)O)c12)OC(C)(C)CC3 | inconclusive: 30.1 µM [inhibitor, partial curve, poor fit]
COc1ccc(CCNC(=O)NCc2noc3ccccc23)c(OC)c1 | inactive
CCCCCc1ccc(OCCC[n+]2ccccc2)c(CCCCC)c1 | inactive
O=C(Nc1sc2c(c1C(=O)O)CCC2)c1ccccc1Cl | inconclusive: 23.9 µM [inhibitor, single point]
CCn1c(SCc2ccc(C(=O)Nc3cc(C)cc(C)c3)cc2)nnc1-c1ccncc1 | inconclusive: 19 µM [inhibitor, partial curve]
COc1ccccc1CNC(=O)CSC1=NCCS1 | inconclusive: 37.9 µM [inhibitor, partial curve, poor fit]

Structure (SMILES) | Potency
O=C(Oc1ccc(-c2cn3c(n2)SCC3)cc1)c1ccccc1 | inconclusive: 2.69 µM [inhibitor, full curve]
COc1cc(NC(=O)c2noc3c2CCc2ccccc2-3)cc(OC)c1OC | inconclusive: 37.9 µM [inhibitor, single point]
Cc1ccc(-c2noc(CN(C3CCCCC3)S(=O)(=O)c3ccc(C)cc3)n2)cc1 | inactive
O=C1NC(=Nc2ccccc2)S/C1=C\c1ccccc1 | inconclusive: 7.57 µM [inhibitor, partial curve, poor fit]
Cc1cccc(-c2nnc(-c3ccccc3)o2)c1 | active: 9.53 µM
CC1=C(C)C(=O)C(CCCCC#CCCCC#CCO)=C(C)C1=O | inconclusive: 23.9 µM [inhibitor, partial curve, poor fit]
O=C(Cc1ccccc1[N+](=O)[O-])Nc1ccc2c(c1)OCO2 | inconclusive: 26.9 µM [inhibitor, single point]
CCC(C(=O)Nc1cccc(-c2cn3cccnc3n2)c1)c1ccccc1 (stereo not given) | inconclusive: 37.9 µM [inhibitor, partial curve, poor fit]
CC(C)(C)OC(=O)N1CCC(c2c(C(=O)NCc3ccc4c(c3)OCO4)cnn2-c2ccc(F)cc2F)CC1 | inactive
COc1ccc(C(=O)N[C@H](C(=O)OCc2cc(=O)oc3cc(C)ccc23)C(C)C)cc1 | inconclusive: 21.3 µM [inhibitor, single point]
COc1ccc(NC(=O)CN(C)C(=O)CCCN2C(=O)c3cccc4cccc(c34)C2=O)cc1 | inconclusive: 23.9 µM [inhibitor, partial curve, poor fit]
CN(Cc1ccccc1)c1nc(-c2ccc(F)cc2)cc(C(F)(F)F)n1 | inactive
Cc1ccc(O)c(-c2cc(C(=O)Nc3ccc(S(=O)(=O)Nc4nc(C)cc(C)n4)cc3)[nH]n2)c1 | inconclusive: 37.9 µM [inhibitor, partial curve, poor fit]
Cc1ccc(-c2cc3ncc(C(=O)c4cc([N+](=O)[O-])ccc4O)cn3n2)cc1 | active: 9.53 µM
Cc1ccc(NC(=O)CCSCCc2ccccn2)cc1 | inactive
Cc1ccc(NC(=O)Nc2cccnc2)cc1NC(=O)Nc1cccnc1 | inconclusive: 8.49 µM [inhibitor, partial curve]
O=C(NCCNC(=O)c1ccccn1)c1ccc(Cl)cc1 | inactive
Cc1ccc(NC(=O)c2nnn(-c3cc(C)cc(C)c3)c2N)cc1 | inconclusive: 26.9 µM [inhibitor, single point]
O=C1C=C(c2ccc(F)cc2OCc2ccccc2)C[C@@H](c2ccc(F)cc2)C1 | inactive
COCC(=O)N/N=C\c1cccc(OC)c1OC/C=C/c1ccccc1 | inconclusive: 19 µM [inhibitor, partial curve]
CCOC(=O)c1ccc(NC(=O)CN2C(=O)c3cccnc3Oc3ccc(Cl)cc32)cc1 | inconclusive: 26.9 µM [inhibitor, partial curve, poor fit]
COc1ccc2nc(Nc3nc(CSc4nnc(C)s4)cc(=O)[nH]3)nc(C)c2c1 | inconclusive: 0.239 µM [inhibitor, full curve, poor fit]
